Laboratory results from PubChem BioAssay AID1159614 (National Center for Advancing Translational Sciences (NCATS), 2016).
About 65 (0.1%) of roughly 45,000 compounds were called active. The call rests on the fitted dose curve; in most records, active means well fitted activation curve with a large enough effect; inconclusive means small, poorly fitted or top-dose-only effect; inactive means no such curve, though single readings can be large or run the other way. Some of the results follow.

molecular target: Galactocerebrosidase (Homo sapiens) (UniProt P54803); assay: A Novel Cell-Based Assay to Identify Small Molecules for B -Galactocerebrosidase; conditions: 145M-Twi-hGALC-G270D cells (Twitcher mouse brain line with human GALC G270D), HMU-beta-Gal fluorescence, 48 h; series mostly up to 57.5 µM; activation: at the top concentration; further: 0% is about no effect; nearly all actives have a fitted effect of over 65% in size
Summary of the method: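 Fluorogenic HMU-b-Gal hydrolysis (0.1 mM final, pH 5.2 citrate-phosphate with 1 mg/mL sodium taurocholate; carbonate stop buffer) measures mutant GALC activity after compound treatment of live 145M-Twi Twitcher brain cells stably carrying human GALC-G270D, with wild-type GALC line alongside; activation sought.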

UniProt P54803, sequence (P54803 whole entry, looked up): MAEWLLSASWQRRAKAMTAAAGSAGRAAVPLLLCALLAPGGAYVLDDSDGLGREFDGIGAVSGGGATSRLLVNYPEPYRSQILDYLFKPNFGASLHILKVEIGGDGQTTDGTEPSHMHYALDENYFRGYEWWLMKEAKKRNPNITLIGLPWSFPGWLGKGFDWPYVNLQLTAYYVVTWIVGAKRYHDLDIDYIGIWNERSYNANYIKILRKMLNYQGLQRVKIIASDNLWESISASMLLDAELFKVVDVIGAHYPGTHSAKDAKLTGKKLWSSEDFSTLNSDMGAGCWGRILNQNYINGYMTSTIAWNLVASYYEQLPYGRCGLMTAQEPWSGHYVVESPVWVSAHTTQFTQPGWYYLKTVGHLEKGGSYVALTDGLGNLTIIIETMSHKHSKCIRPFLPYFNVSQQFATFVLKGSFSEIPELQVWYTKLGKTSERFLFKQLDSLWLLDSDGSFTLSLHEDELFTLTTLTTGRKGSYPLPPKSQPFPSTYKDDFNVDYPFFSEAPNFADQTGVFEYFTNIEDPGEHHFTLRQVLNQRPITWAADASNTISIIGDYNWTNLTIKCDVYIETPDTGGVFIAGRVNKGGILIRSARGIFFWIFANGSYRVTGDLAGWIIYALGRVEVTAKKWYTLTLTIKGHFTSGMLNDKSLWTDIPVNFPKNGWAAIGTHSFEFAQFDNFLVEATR

activation, inactive:
Cc1cc(C)n2nc(CNS(=O)(=O)c3ccc(Cl)cc3)nc2n1 -13.1%, CC1CN(C(=O)N2CCC(C(=O)NC3CCCCCC3)CC2)c2cc(Cl)ccc2O1 (stereo not given) -8.52%, COc1ccccc1N1CCN(S(=O)(=O)c2ccc(F)c(C(=O)Nc3ccc(C)c(F)c3)c2)CC1 -7.84%, CCOc1ccc2nc(N3CCCC(C(=O)Nc4ccc(Br)c(C)c4)C3)sc2c1 (stereo not given) -19.4%, COc1ccc(NC(=O)c2ccco2)cc1NC(=O)COc1cc(C)cc(C)c1 -8.76%, CCC(=O)N1CCc2cc(Br)cc(S(=O)(=O)N3CCN(c4ccccc4)CC3)c21 -8.33%, CCc1nnc2c(NCc3ccc(F)cc3)nc3ccccc3n12 -20.6%, COc1ccc(CNC(=O)C2CCCN(S(=O)(=O)c3ccc4c(c3)CCCN4C(C)=O)C2)cc1 (stereo not given) -16.3%, Cc1ccc(C(C)C)c(OCCn2cc(C(=O)c3ccco3)c3ccccc32)c1 -16.8%, O=C(Nc1cc(Cl)cc(Cl)c1)c1ccc(F)c(S(=O)(=O)N2CCCCCC2)c1 -16.3%, COc1ccccc1N1CCN(C(=O)c2oc3ccccc3c2NC(=O)C(C)Oc2ccccc2)CC1 (stereo not given) -19.8%, CCOc1ccc(-c2n[nH]c3c2C(c2ccccc2OC)N(c2ccc(Br)cc2)C3=O)cc1 (stereo not given) -3.97%, COc1ccc2c(c1)NC(c1ccc(OCC(C)C)cc1)=NC(c1ccncc1)=N2 -12.1%, COc1ccc(CCNC(=O)c2cc(Sc3cccc(Cl)c3)nc3ccccc23)cc1OC -10.3%, COc1ccc2c(c1)CC(C(=O)N1CCC(C(N)=O)CC1)CO2 (stereo not given) -11.3%, COC(=O)c1cc2oc(C)cc2n1Cc1c(C)cc(C)cc1C -15%, CCN(CC)c1ccc(NS(=O)(=O)c2ccc3c(c2)CCCN3C(C)=O)c(C)c1 -14.7%, COc1cc2c(=O)n(Cc3ccccc3)c(=O)n(CC(=O)Nc3cc(C(F)(F)F)ccc3Cl)c2cc1OC -17.1%, O=C(Cn1cccc1C(=O)c1ccccc1)NCc1ccc(F)cc1 -10.4%, CN1C(C(=O)Nc2ccc(OC(F)(F)F)cc2)=CC(c2ccc3c(c2)OCO3)=NS1(=O)=O -12.9%, Cc1ccc(OC(=O)c2snnc2C)cc1C -14.4%, CCCN1CCN(CCNC(=O)Nc2cc(OC)cc(OC)c2)CC1 -1.85%, O=C(CSc1ncc2c(n1)-c1ccccc1N(Cc1ccc(F)cc1)S2(=O)=O)c1ccc(Br)cc1 -15.1%, Cc1ccc(NC(=O)C(=O)NCC(c2ccc3c(c2)OCO3)N2CCOCC2)c(C)c1 (stereo not given) -7.6%, CCc1ccc(N2CCn3c2nc2c3c(=O)n(Cc3cccc(C)c3)c(=O)n2C)cc1 -5.53%, CCOC(=O)c1c(C)oc2ncnc(NCCc3ccccc3)c12 -19.4%, COc1ccc(C2c3c(n(C)c4ccccc34)C(=O)N2CC(=O)Nc2ccc(Cl)cc2)cc1 (stereo not given) -3.01%, COc1cc2nc(SCC(=O)Nc3ccc(F)cc3)n3nc(CCn4c(C)nc5ccccc54)nc3c2cc1OC -4.26%, COc1ccc(OCC(=O)Nc2cc(-c3cccc(Cl)c3)nn2-c2ccccc2)cc1 -17.4%, CCc1ccc(Nc2cc(C)nc3nc(Cc4ccc(Cl)cc4)nn23)cc1 5.97%, CC(C)c1ccc(OCc2cc(=O)n3c4c(sc3n2)CCCC4)cc1 2.89%, Cc1cccc(NC(=O)CSc2nc3ccc(NC(=O)c4cccs4)cc3s2)c1 -26.8%, CCN(CC)CCN(C(=O)c1ccco1)c1nc2c(C)cccc2s1 -12.2%, COc1ccc(-c2oc3ncn4nc(-c5ccc(Cl)cc5)nc4c3c2-c2ccc(OC)cc2)cc1 2.91%, COc1ccccc1NC(=O)CN(c1ccc(C(C)C)cc1)S(=O)(=O)c1c(C)noc1C -11.1%, CCOC(=O)c1ccc(CSc2nnc3cc(C)c4ccccc4n23)cc1 0.519%, O=C(NC1CCCCC1)c1ccc2c(c1)sc1nc(-c3ccccc3)cn12 -2.5%, N#Cc1ccc(C(=O)N2CCN(c3nc4ccc(F)cc4s3)CC2)cc1 -8.71%, COc1ccc(CNC(=O)CC2N=C3c4ccccc4N=C(SCC(=O)Nc4ccc(N(C)C)cc4)N3C2=O)cc1 (stereo not given) -3.13%, Cc1ccc(CN2c3ccccc3S(=O)(=O)c3ccccc32)cc1 -15.3%, O=C(CSc1oc(-c2ccco2)nc1S(=O)(=O)c1ccc(Cl)cc1)c1ccc(Cl)cc1 -10.9%, Cc1ccc2oc(=O)c3cc(C(=O)N(Cc4ccccc4)C(C)C)sc3c2c1 -25.5%, CCCCCNC(=O)C(=O)NCC(c1ccc2c(c1)OCO2)N1CCOCC1 (stereo not given) -17.9%, Cc1ccc(CSc2nc(=O)c3c(n2C)NC(=O)CC3c2ccc(OC(C)C)cc2)cc1 (stereo not given) -14.6%, CCN1CCC(N(Cc2cccc(OC)c2)C(=O)Nc2ccc(C)cc2Cl)CC1 1.17%, COC(=O)C1=C(C)NC(C)=C(C(=O)OCCc2ccc(N3CCN(C(c4ccccc4)c4ccccc4)CC3)cc2)C1c1cccc([N+](=O)[O-])c1 (stereo not given) -16.8%, CCC(C(=O)Nc1cccc(C#N)c1)n1c(=O)c(-c2ccccc2NC(C)=O)nc2ccccc21 (stereo not given) -14.7%, Cc1ccc(S(=O)(=O)Nc2cc3c(cc2N2CCOCC2)n(C)c(=O)n3C)c(C)c1 -18.5%, Cc1ccc2c(c1)c1c(c(=O)n(Cc3ccccc3)c(=O)n1CC(=O)Nc1ccccc1C)n2C 5.23%, Cc1ccc(NC(=O)Cn2c(-c3ccc4c(c3)OCO4)cn(-c3ccccc3)c2=O)cc1 -21%, COc1ccc(-c2c3c(=O)n(C)c(=O)n(C)c3c3c(-c4ccc(C)cc4)nc4ccccc4n23)cc1 -24.3%, Cc1cc(O)c(C(c2ccccc2Cl)N2CCN(c3ccccc3)CC2)c(=O)n1Cc1ccco1 (stereo not given) -0.869%, Cc1ccc(C)c(NC(=O)CCCn2nc(C)c3sc4ccccc4c3c2=O)c1 -6.96%, COc1cc(NC(=O)c2cnn(-c3cccc(F)c3)c2C2CCNCC2)cc(OC)c1OC -27.6%, CCc1nnc(NC(=O)CSCc2cc(=O)c3ccc(C)cc3[nH]2)s1 6.99%, COc1ccc(NC(=O)CN(Cc2ccccc2)S(=O)(=O)c2ccc3nc(C)sc3c2)cc1 6.38%, COc1cc(CN(C(=O)COc2ccc(C)c(C)c2)c2ccccn2)cc(OC)c1OC -3.93%, CCCN(CCC)CCNC(=O)c1cc2c(-c3ccccc3F)nn(C)c2s1 -7.98%, O=C(NCc1ccc(F)cc1)c1ccc(NC(=O)N2CC3CCCN3c3ccccc32)cc1 (stereo not given) -9.97%, COCCNC(=O)C1CCCN(S(=O)(=O)c2ccc3c(ccn3C)c2)C1 (stereo not given) -17.6%
